This passage reports ISRE reporter results from the supplement of paper PMC9174493.

This is one part of the list. Single values of this set are uncertain. Values with irradiation are relative to irradiated vehicle.

The experiment deals with A549-Dual. Kind of experiment: ISRE reporter (Lucia luciferase) activity, viability-corrected, relative to vehicle (fold change vs vehicle); higher = more activation of STING-IRF / NF-kB immune response reporter. Conditions: 10 µM; irradiation: 8 Gy/4 fr.
In the case of `C/C(=C(\CCOC(=O)C(C)C)SS/C(CCOC(=O)C(C)C)=C(/C)N(C=O)Cc1cnc(C)nc1N)N(C=O)Cc1cnc(C)nc1N` [Sulbutiamine], the ISRE reporter was 0.495. In the case of `Cl.OC(CCN1CCCCC1)(c1ccccc1)C1CCCCC1` (configuration not stated) [Trihexyphenidyl hydrochloride] it was 0.83; in that of `Clc1ccc(Cn2c(CN3CCCC3)nc3ccccc32)cc1` [Clemizole], 0.378; in that of `O=C([O][Ca][O]C(=O)C(O)C(O)C(O)C(O)C(O)CO)C(O)C(O)C(O)C(O)C(O)CO` (configuration not stated) [Calcium Gluceptate], 1.08. Next, `CC1CCC2C(C)C(OC(=O)CCC(=O)O)OC3OC4(C)CCC1C32OO4` (configuration not stated) [Artesunate]: 0.444; `CC(C)NCC(O)c1ccc(NS(C)(=O)=O)cc1.Cl` (configuration not stated) [Sotalol HCl]: 1.08. In the case of `CCCN(CCc1cccs1)C1CCc2c(O)cccc2C1` (configuration not stated) [Rotigotine] it was 0.816.
